According to publication PMC9911399, “Two distinct binding modes provide the RNA-binding protein RbFox with extraordinary sequence specificity”:
Changes are numbered by the printed parent chain; changes in the protein carry UniProt numbers. This is one part of the list.

B1: UAUGCCC (DNA:RNA)
RNA: GGGAGACCGGAAUUCAGAUUGUCCUAUGCCCUUAAAUCCCGUCGUAGCCACCA
DNA 1: CAATCTGAATTCCGGTCTCCC
DNA 2: TGGTGGCTACGACGGGATT
B2: UAGCUUU (DNA:RNA)
RNA: B1 RNA with U27G, G28C, C29U, C30U, C31U
DNA 1: CAATCTGAATTCCGGTCTCCC
DNA 2: TGGTGGCTACGACGGGATT
B3: GCCCUAG (DNA:RNA)
RNA: GGGAGACCGGAAUUCAGAUUGUCCGCCCUAGUUAAAUCCCGUCGUAGCCACCA
DNA 1: CAATCTGAATTCCGGTCTCCC
DNA 2: TGGTGGCTACGACGGGATT
B4: UUCAUCA (DNA:RNA)
RNA: B3 RNA with G25U, C26U, C28A, A30C, G31A
DNA 1: CAATCTGAATTCCGGTCTCCC
DNA 2: TGGTGGCTACGACGGGATT
B5: ACCGGGA (DNA:RNA)
RNA: B3 RNA with G25A, C28G, U29G, A30G, G31A
DNA 1: CAATCTGAATTCCGGTCTCCC
DNA 2: TGGTGGCTACGACGGGATT
B6: CUUUGUG (DNA:RNA)
RNA: B3 RNA with G25C, C26U, C27U, C28U, U29G, A30U
DNA 1: CAATCTGAATTCCGGTCTCCC
DNA 2: TGGTGGCTACGACGGGATT
B7: AUCCAAA (DNA:RNA)
RNA: B3 RNA with G25A, C26U, U29A, G31A
DNA 1: CAATCTGAATTCCGGTCTCCC
DNA 2: TGGTGGCTACGACGGGATT
B8: AGCUAGU (DNA:RNA)
RNA: B3 RNA with G25A, C26G, C28U, U29A, A30G, G31U
DNA 1: CAATCTGAATTCCGGTCTCCC
DNA 2: TGGTGGCTACGACGGGATT
B9: GCCUACG (DNA:RNA)
RNA: B3 RNA with C28U, U29A, A30C
DNA 1: CAATCTGAATTCCGGTCTCCC
DNA 2: TGGTGGCTACGACGGGATT
B10: CCUGGCA (DNA:RNA)
RNA: B1 RNA with U25C, A26C, C29G, C31A
DNA 1: CAATCTGAATTCCGGTCTCCC
DNA 2: TGGTGGCTACGACGGGATT
B11: GUCGCCG (DNA:RNA)
RNA: B3 RNA with C26U, C28G, U29C, A30C
DNA 1: CAATCTGAATTCCGGTCTCCC
DNA 2: TGGTGGCTACGACGGGATT
B12: AGGGAAU (DNA:RNA)
RNA: B3 RNA with G25A, C26G, C27G, C28G, U29A, G31U
DNA 1: CAATCTGAATTCCGGTCTCCC
DNA 2: TGGTGGCTACGACGGGATT
B13: GCAAAGC (DNA:RNA)
RNA: B3 RNA with C27A, C28A, U29A, A30G, G31C
DNA 1: CAATCTGAATTCCGGTCTCCC
DNA 2: TGGTGGCTACGACGGGATT
B14: CGCUGUU (DNA:RNA)
RNA: B3 RNA with G25C, C26G, C28U, U29G, A30U, G31U
DNA 1: CAATCTGAATTCCGGTCTCCC
DNA 2: TGGTGGCTACGACGGGATT
B15: UUUUGAC (DNA:RNA)
RNA: B1 RNA with A26U, G28U, C29G, C30A
DNA 1: CAATCTGAATTCCGGTCTCCC
DNA 2: TGGTGGCTACGACGGGATT
B16: CGCUUUA (DNA:RNA)
RNA: B3 RNA with G25C, C26G, C28U, A30U, G31A
DNA 1: CAATCTGAATTCCGGTCTCCC
DNA 2: TGGTGGCTACGACGGGATT
B17: CAGCGUG (DNA:RNA)
RNA: B3 RNA with G25C, C26A, C27G, U29G, A30U
DNA 1: CAATCTGAATTCCGGTCTCCC
DNA 2: TGGTGGCTACGACGGGATT
B18: CUCCGCC (DNA:RNA)
RNA: B3 RNA with G25C, C26U, U29G, A30C, G31C
DNA 1: CAATCTGAATTCCGGTCTCCC
DNA 2: TGGTGGCTACGACGGGATT
B19: CCUCUUC (DNA:RNA)
RNA: B3 RNA with G25C, C27U, A30U, G31C
DNA 1: CAATCTGAATTCCGGTCTCCC
DNA 2: TGGTGGCTACGACGGGATT
B20: UCAGCCG (DNA:RNA)
RNA: B1 RNA with A26C, U27A, C31G
DNA 1: CAATCTGAATTCCGGTCTCCC
DNA 2: TGGTGGCTACGACGGGATT

Target: T1, RBFOX1 RRM (Homo sapiens, UniProt Q9NWB1 109-208)
T1 sequence: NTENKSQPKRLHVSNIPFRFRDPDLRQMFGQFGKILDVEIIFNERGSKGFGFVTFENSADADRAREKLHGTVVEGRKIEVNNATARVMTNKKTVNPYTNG
Experiment: EMSA; HiTS-Eq, 1 nM pool, 10 min; buffer printed only for the single-RNA assays: 10 mM Tris pH 7.5, 150 mM NaCl, 3.4 mM EDTA, 0.001% NP-40, 30 C
Settings: tags: His6 N-terminal (pET28a); label: 5' 32P
Procedure, shortened: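 Purified wild-type or mutant RbFox RRM at increasing concentrations was equilibrated with 1 nM of 5′-radiolabelled RNA carrying 7 randomized nucleotides for 10 min in 50 µL. Unbound RNA was separated by 8% native PAGE and sequenced. Relative association constants came from read-count changes of each RNA species compared with the control reaction, normalised to the cognate motif.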

Binder	binding signal
B1	0.00935 KA relative to UGCAUGU
B2	0.0104 KA relative to UGCAUGU
B3	0.0121 KA relative to UGCAUGU
B4	0.00251 KA relative to UGCAUGU
B5	0.0106 KA relative to UGCAUGU
B6	0.0246 KA relative to UGCAUGU
B7	0.000204 KA relative to UGCAUGU
B8	0.0151 KA relative to UGCAUGU
B9	0.0146 KA relative to UGCAUGU
B10	0.0174 KA relative to UGCAUGU
B11	0.0192 KA relative to UGCAUGU
B12	0.0142 KA relative to UGCAUGU
B13	0.0111 KA relative to UGCAUGU
B14	0.0196 KA relative to UGCAUGU
B15	0.0195 KA relative to UGCAUGU
B16	0.00579 KA relative to UGCAUGU
B17	0.0182 KA relative to UGCAUGU
B18	0.00769 KA relative to UGCAUGU
B19	0.00494 KA relative to UGCAUGU
B20	0.00784 KA relative to UGCAUGU
